Reference: US20240392013A1, “IL1RAP ANTIBODIES AND USES THEREOF” (STELEXIS THERAPEUTICS, LLC, priority 2021, published 2024)

Tests used:
[1] = tested on: cyIL1RAP; assay: Kinetics of IL1RAP mAbs by Octet, cynomolgus IL1RAP; type: binding
Experimental: (§1) Antibodies were diluted in kinetics buffer (0.1% BSA, 0.02% Tween-20 and 0.05% NaN3 in PBS) and loaded onto 16 channel anti-mouse IgG Fc capture sensors (AMC, Cat #2001073; Sartorius, Göttingen, Germany). Human, huIL1RAP-His (Sino Biological, lot: MB08MA1301), and monkey, cyIL1RAP-His (Lake Pharma, NY, USA; lot:16205819371) proteins were titrated starting from the highest concentration of 100 nM and followed by 50 nM and 25 nM. Purified antibodies were loaded at 5 μg/ml in kinetics buffer. The experimental parameters selected to determine the kinetic constants were Baseline for 60 s, Loading of antibody to sensor for 180 s, Association of analyte to antibody for 120 s, Dissociation for 1200 s and Regeneration in 10 mM Glycine pH 1.7 for 4×30 s.
(§2) Regeneration cycle tracking was selected for 12 cycles. Binding to human and cynomolgus IL1RAP was measured and KD (M) kinetics were calculated. Also, the disassociation rate (Kdis) (1/s) and association rate (Kon) (1/Ms) kinetics were calculated (data not shown).

[2] = molecular target: T1, hIL1RAP (Homo sapiens, UniProt Q9NPH3); assay: Kinetics of IL1RAP mAbs by Octet, human IL1RAP; type: binding; parameters: extracellular domain His-tagged, Cat #10121-H08H; His; purchased Sino Biological lot MB08MA1301 (catalogue number not given)
T1 sequence (Q9NPH3 21-367 limits assumed): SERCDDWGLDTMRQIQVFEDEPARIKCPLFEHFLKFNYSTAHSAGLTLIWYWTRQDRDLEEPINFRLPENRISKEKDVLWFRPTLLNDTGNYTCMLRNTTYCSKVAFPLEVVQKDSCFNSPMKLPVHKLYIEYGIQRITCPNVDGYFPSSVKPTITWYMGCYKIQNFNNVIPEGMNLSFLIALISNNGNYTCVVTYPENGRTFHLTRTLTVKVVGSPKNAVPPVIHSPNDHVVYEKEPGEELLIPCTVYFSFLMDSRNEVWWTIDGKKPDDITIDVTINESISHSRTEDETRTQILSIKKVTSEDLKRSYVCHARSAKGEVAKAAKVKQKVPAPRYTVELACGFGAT
Experimental: as §1, §2

[3] = tested on: IL1-induced NFκB activity; assay: HEK-BlueIL1β NFκB Reporter Assay; type: cell-based; conditions: nM range, read-out: IC50, inhibition of IL1-induced NFκB activity
Experimental: The HEK-Blue IL1β (Invivogen, Cat #hkb-il1b) cell line was used to monitor NFκB activity upon stimulation with IL1β cytokine. In this cell line the secreted embryonic alkaline phosphatase reporter gene (SEAP) is inducibly expressed under the control of IFN-β minimal promoter fused to NFκB/AP-1. Specificity to IL1β cytokine was achieved by blockage of TNF-α response. The cells were maintained in the presence of hygromycin (200 μg/ml) and zeocin (100 μg/ml).
For the functional assay, cells were plated at a density of 5×10^4 cells/well in 96-well plates. Cells were treated with each antibody at the highest concentration of 200 μg/ml followed by seven serial 1:3 dilutions and incubated for 45 minutes at 37° C./5% CO2 in humified incubator. Cells were then stimulated with IL1β ([…]) and incubated overnight at 37° C./5% CO2 in humified incubator. Every treatment was conducted in triplicates. Following, supernatants from each well were mixed with Quanti-Blue substrate (Invivogen, CA USA; Cat #rep-qb1) according to manufacturer's recommendations and secreted SEAP was measured using spectrophotometer at 650 nm.

[4] = tested on: IL33-induced NFκB activity; assay: HEK-BlueIL33 NFκB Reporter Assay; type: cell-based, human; conditions: nM range, read-out: IC50, inhibition of IL33-induced NFκB activity
Text: HEK-Blue IL33 (Invivogen, Cat #hkb-hil33) cell line was used to monitor NFκB activity upon stimulation with IL33 cytokine. The secreted embryonic alkaline phosphatase reporter gene (SEAP) is inducible expressed under the control of IFN-β minimal promoter fused to NFκB/AP-1. HEK-BlueIL33 cells were also generated upon stable transfection with human IL1RL1 (ST2) gene. Specificity to IL33 cytokine was achieved by blockage of TNF-α and IL1 response. Cells are maintained in the presence of hygromycin (200 μg/ml), zeocin (100 μg/ml) and blasticidin (10 μg/ml).
For the functional assay, cells were plated at a density of 5×10^4 cells/well in 96-well plates. Cells were treated with each antibody at the highest concentration of 200 μg/ml followed by seven serial 1:3 dilutions and incubated for 45 minutes at 37° C./5% CO^2 in humified incubator. Cells were then stimulated with IL33 (12 μM) and incubated overnight at 37° C./5% CO2 in humified incubator. Every treatment was conducted in triplicates. Following, supernatants from each well were mixed with Quanti-Blue substrate (Invivogen, Cat #rep-qb1) according to manufacturer's recommendations and secreted SEAP was measured using spectrophotometer at 650 nm.

B1: 74804_17E20A: anti-IL1RAP mAb; VH SEQ ID NO:17, VL SEQ ID NO:32, κ light chain (antibody, V domains shown)
VH: EVQLVQSGAEVKKPGESLKISCKGSGYSFTSYWIGWVRQMPGKGLEWMGIIWPGDSDTRYSPSFQGQVTISADKSVNTAYLQWISLKASDTAIYYCARSSGGTAMDVWGQGTTVTVSS
VL: [about 100 residues not given here]YCMQGLQTQWTFGQGTRVEIK
modifications: 74804_17E20A VH; 74804_17E20A VL
- cyIL1RAP kdis(1/s) [1]: 0.000259 s⁻¹
- cyIL1RAP kon(1/Ms) [1]: 350800 M⁻¹ s⁻¹
- hIL1RAP kdis(1/s) [2]: 0.000348 s⁻¹
- hIL1RAP kon(1/Ms) [2]: 419500 M⁻¹ s⁻¹
- IC50 [3]: 0.819 nM
- IC50 [4]: 4.82 nM
